# The whole screen tested about 380,000 compounds, of which about 4,000 (1.1%) were called active. Inconclusive means that the source gave no clear call. Such entries were picked first, then a sample of the others. Calls come from the whole dose curve; as a rule, active = well fitted activation curve with a large enough effect; inconclusive = small, poorly fitted or top-dose-only effect; inactive = no such curve, though single readings can be large or run the other way. A potency beside an inconclusive call is a rough fit, not a confirmed value.
# Assay: qHTS Assay to Identify Small Molecule Activators of BRCA1 Expression; note: nearly all actives have a fitted effect of over 80% in size
# Conditions: MCF7-BRCA1-FFLuc reporter, luminescence, 48 h; activation: at 46.1 µM (top of the series), scaled: vehicle 0%, 10 µM genistein 100% unless noted
# In short: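 Quantitative HTS in MCF7 cells stably reporting BRCA1 expression via firefly luciferase. Compound treatment lasts 48 h at 37 °C in phenol-red free MEM. Activation is expressed relative to genistein at 10 microM and DMSO.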
# Potency is the fitted concentration of half-maximal effect; tags give direction and shape of the fitted curve.
SMILES,Potency,activation
O=C(Cc1ccccc1)Nc1cc2c(cc1Cl)OCCCO2,active: 3.16 µM,
CC(=O)NC(c1ccc(C)cc1)c1cc([N+](=O)[O-])c2cccnc2c1O (centres undefined),,inactive: -106%
C[C@H]1CCC/C=C/[C@@H]2C[C@H](O)C[C@H]2[C@H](O)[C@H](S(=O)c2ccc(O)cc2)CC(=O)O1 (some centres undefined),,inconclusive: -82.5% [activator]
Cc1cccc(NC(=O)C(=O)NCC2CCCO2)c1 (centres undefined),active: 2.24 µM,
CC(C)(C)C(=O)c1sc(Nc2ccccc2)nc1N,"inconclusive: 2.82 µM [activator, full curve, poor fit]",
Cc1ccc(NC(=O)c2ccc(Nc3ccccc3F)nc2)cc1,active: 8.91 µM,
Cc1ccc2c(c1)nnn2C1CCN(CC(=O)c2ccc(Cl)cc2)CC1,"inconclusive: 17.8 µM [activator, single point]",
O=C(Nc1nc2cc3c(cc2s1)OCO3)C1CCCCC1,"inconclusive: 2 µM [activator, full curve, poor fit]",
COc1ccccc1OCC(=O)Nc1ccc2c(c1)OCCO2,"inconclusive: 12.6 µM [activator, partial curve, poor fit]",
COCC1CCN(C(=O)c2cc(COc3cc(C)c(Cl)c(C)c3)on2)C1 (centres undefined),"inconclusive: 11.2 µM [activator, partial curve, poor fit]",
COc1ccc(/C(N)=N/OC(=O)c2ccc3c(c2)OCO3)cc1,active: 3.16 µM,
COc1cc(/C=C2\C=Cc3ccccc32)ccc1N(C)C,"inconclusive: 3.55 µM [activator, full curve, poor fit]",
O=C(NC(Cc1ccccc1)c1nc2ccccc2[nH]1)c1ccc(Cl)c([N+](=O)[O-])c1 (centres undefined),,inactive: -85.6%
CC(C)C1Oc2ccccc2C(=O)N(CC(=O)c2ccc3c(c2)OCCO3)C1=O (centres undefined),"inconclusive: 0.891 µM [activator, full curve, poor fit]",
COc1ccc2cc(C(N)=O)c(=Nc3ccc(C)cc3)oc2c1,"inconclusive: 12.6 µM [activator, partial curve, poor fit]",
COc1ccc(-c2cc(C(=O)N3CCCCCC3)no2)cc1OC,"inconclusive: 12.6 µM [activator, partial curve, poor fit]",
CC[C@]12c3[nH]c4cc(CCC(=O)N(C)C)ccc4c3CCN1C(=O)[C@@H](CC(=O)NCCc1ccccn1)C[C@@H]2C(=O)N1CCN(C(=O)c2ccco2)CC1,,inactive: 35.9%
CC1(C)CCCN(Cc2c(O)ccc3c(=O)c(-c4nc5ccccc5s4)c(N)oc23)C1,"inconclusive: 11.2 µM [activator, partial curve, poor fit]",
CC(C)OC(=O)c1cccc(NC(=O)c2ccccc2)c1,active: 11.2 µM,
Clc1ccc(-c2nc(CSc3ccccn3)cs2)cc1,active: 10 µM,
O=C(Nc1ccc(OCc2ccccc2)cc1)c1cccs1,"inconclusive: 7.08 µM [activator, partial curve, poor fit]",
Cc1cc(C(=O)CNCc2ccco2)c(C)n1-c1ccc(F)cc1,"inconclusive: 1.26 µM [activator, full curve, poor fit]",
CC12CC3CC(C)(C1)CC(Nc1nc(N4CCOCC4)nc4ccccc14)(C3)C2,,inactive: -5.34%
O=C(O)c1ccc(N/N=C/c2ccc(-c3ccccc3Cl)o2)cc1,,inconclusive: 68.3% [activator]
COC(=O)c1ccc(CNC(=O)c2ccc3oc(C(C)C)nc3c2)cc1,"inconclusive: 17.8 µM [activator, partial curve, poor fit]",

SMILES,Potency,activation
CC1CCc2nc(/C(C#N)=C/c3ccncc3)sc2C1 (centres undefined),active: 11.2 µM,
C/C(=N/NC(=O)c1ccoc1C)c1ccc(NC(=O)C2CCCC2)cc1,active: 5.62 µM,
CC(NC(=O)CCCc1c[nH]c2ccccc12)c1ccc(F)cc1 (centres undefined),,inactive: -21.7%
C=CCn1cccc(C(=O)Nc2ccc(N(C)C)cc2)c1=O,"inconclusive: 10 µM [activator, partial curve, poor fit]",
CC(=O)NCCOc1ccc2oc3ccccc3c2c1,"inconclusive: 25.1 µM [activator, single point]",
COc1ccc(-c2csc(N3C(=O)CNC3=S)n2)cc1,,inconclusive: 62.9% [activator]
O=C(CSc1nnc(-c2ccccn2)o1)Nc1cccc(Cl)c1,"inconclusive: 6.31 µM [activator, full curve, poor fit]",
O=C1C(=Cc2ccc(F)cc2)CCc2ccccc21,,inactive: 68.2%
CCOc1ccccc1OC(=O)c1cc2ccccc2oc1=O,,inactive: -3.94%
COc1ccc2nc(N3CCCC(O)C3)c(C#N)cc2c1 (centres undefined),"inconclusive: 17.8 µM [activator, single point]",
CC(C)(C)c1ccc(NC(=O)Nc2ccc(OCC(=O)N3CCOCC3)cc2)cc1,"inconclusive: 1.58 µM [activator, partial curve, poor fit]",
COc1ccc(NC(=O)c2cc3ccccc3o2)cc1OC,"inconclusive: 11.2 µM [activator, partial curve, poor fit]",
COc1ccccc1C(c1nnnn1CCc1ccccc1)N1CCN(c2ccccc2)CC1 (centres undefined),"inconclusive: 35.5 µM [activator, single point]",
O=C(CSc1nc2ccccc2[nH]1)c1ccco1,"inconclusive: 14.1 µM [activator, partial curve, poor fit]",
C=CCNC(=S)Nc1ccc(Br)cc1F,"inconclusive: 17.8 µM [activator, single point]",
CCC(=O)Nc1cccc(-c2csc(-c3ccccc3)n2)c1,,inactive: -29.8%
CCS(=O)(=O)N1CCCC(c2nc(-c3cccc(OC)c3)no2)C1 (centres undefined),"inconclusive: 11.2 µM [activator, partial curve, poor fit]",
CC(=O)Oc1oc(-c2ccccc2)nc1/C=N/c1ccccn1,"inconclusive: 15.8 µM [activator, partial curve, poor fit]",
COC(=O)c1scc(S(=O)(=O)C(C)C)c1N/N=C(\C#N)C(=O)c1ccc(Cl)cc1,,inactive: -58.5%
O=C(Cc1ccc([N+](=O)[O-])cc1)Nc1nccs1,,inactive: -0.567%
CC(C)(C)c1ccc(SCCc2cccnc2)cc1,"inconclusive: 12.6 µM [activator, partial curve, poor fit]",
COc1ccc(C(=O)NCCN2C(=O)S/C(=C\c3cccnc3)C2=O)c(OC)c1OC,,inactive: -19.3%
CC(Sc1ncnc2sc(-c3ccccc3)cc12)C(N)=O (centres undefined),active: 10 µM,
CCn1ccc(C(=O)Nc2cccc(Cl)c2)n1,"inconclusive: 3.55 µM [activator, full curve, poor fit]",
COc1ccc(-c2cc(=O)c3cc(OC)ccc3o2)cc1,"inconclusive: 0.562 µM [activator, full curve, poor fit]",

SMILES,Potency,activation
CCc1ccc(NC(=O)N2CCC(c3ccccc3)C2)cc1 (centres undefined),"inconclusive: 1.58 µM [activator, full curve, poor fit]",
O=S(=O)(Nc1nnc(C2CC2)s1)c1ccccc1,,inactive: -19.4%
O=C(NC1CCCCCC1)c1ccc([N+](=O)[O-])s1,,inactive: -68%
COC(=O)c1ccccc1NC(=O)Nc1ccc(Br)cn1,"inconclusive: 17.8 µM [activator, partial curve, poor fit]",
COc1cccc(NC2=CC(=O)CC(C)(C)C2)c1,,inactive: 10.3%
Cn1c(CSCc2ccc(Cl)cc2Cl)n[nH]c1=S,,inactive: -1.6%
CCOC(=O)c1sc(N)nc1C(F)(F)F,,inactive: -46.6%
CSc1ccccc1NC(=O)Cn1ccsc1=N,,inactive: -0.729%
Cn1c(SCC(=O)N2CCCC2)nc2cccnc21,,inactive: 8.15%
COc1ccc2c(c1)CCc1c(C(=O)NCC(C)C)noc1-2,"inconclusive: 0.631 µM [activator, full curve, poor fit]",
CC1(C)CCC(C)(C)NC(=S)N1,"inconclusive: 28.2 µM [activator, single point]",
CN(Cc1nc(-c2cccc(Cl)c2)no1)C1CCOCC1,"inconclusive: 12.6 µM [activator, partial curve, poor fit]",
Nc1c(-c2ccccc2)cnn1-c1ccccc1,"inconclusive: 2.51 µM [activator, full curve, poor fit]",
Cc1c(Cl)ccc2sc(N3CCN(C(=O)c4ccco4)CC3)nc12,"inconclusive: 35.5 µM [activator, single point]",
COc1cc(C2NC(=S)NC(C)=C2C(=O)Nc2ccc(C)cc2)ccc1O (centres undefined),"inconclusive: 12.6 µM [activator, partial curve, poor fit]",
CCCNC(=O)c1cc(-c2ccc(Br)cc2)on1,active: 1.78 µM,
COc1cccc(C=Nc2ccccc2C(=O)Nc2nccs2)c1OC,"inconclusive: 7.08 µM [activator, partial curve, poor fit]",
COc1ccc(C(=S)Nc2ccc(C)cc2)cc1,"inconclusive: 0.891 µM [activator, full curve, poor fit]",
O=C(Nc1ccc(Cl)cc1)N1CCc2ccccc2C1,"inconclusive: 31.6 µM [activator, single point]",
c1cncc(-c2noc(CC3CCCCC3)n2)c1,"inconclusive: 11.2 µM [activator, partial curve, poor fit]",
N#CCCn1cc(C(=O)Nc2ccc(C(=O)O)cc2)c(-c2ccc([N+](=O)[O-])cc2)n1,,inactive: -18.9%
O=C(CC(Nc1ccccc1)C(=O)O)c1ccccc1 (centres undefined),active: 11.2 µM,
NC(=O)C1=NOC(CNc2ncc(C(F)(F)F)cc2Cl)C1 (centres undefined),"inconclusive: 15.8 µM [activator, partial curve, poor fit]",
COc1ccc(C(=O)Nc2ccc(SC(F)F)cc2)cc1,active: 1.26 µM,
